# Laboratory results: PMC11995724, “Antibiotic target discovery by integrated phenotypic and activity-based profiling of electrophilic fragments” (Cell chemical biology, 2025)
# Out of some 3,200 compounds screened, about 110 (3.4%) showed an effect of 50% or more. Some of the results follow.
# System: T1, V. cholerae SAD30
# T1 construct: SAD30
# Parameters: species or system S. aureus MSSA476 (TSB) or V. cholerae SAD30 (LB); 384-well bacterial growth screen at 25 uM, OD600 relative to DMSO control
# Conditions: relative growth, OD600, LB; 25 µM; inhibitor
row,SMILES,% of control remaining [%]
1,"CCCn1c(C)cc(C=C(C#N)C(=O)Nc2ccc3c(c2)OCO3)c1C [9-G07, N-(1,3-dioxaindan-5-yl)-2-cyano-3-(2,5-dimethyl-1-propyl-1H-pyrrol-3-yl)prop-2-enamide]",88.5792
2,"O=C(CCl)NC1CCCS(=O)(=O)c2ccccc21 (stereo not shown) [6-O19, 2-chloro-N-(1,1-dioxo-2,3,4,5-tetrahydro-1lambda6-benzothiepin-5-yl)acetamide]",96.1608
3,"COc1ccc(NC(C)=O)cc1NC(=O)CCl [5-G03, 2-chloro-N-(5-acetamido-2-methoxyphenyl)acetamide]",109.11
4,"CC(Cl)C(=O)N1CCC(N(CC(F)(F)F)S(C)(=O)=O)CC1 (stereo not shown) [7-C07, N-[1-(2-chloropropanoyl)piperidin-4-yl]-N-(2,2,2-trifluoroethyl)methanesulfonamide]",82.7358
5,"N#CC(=Cc1ccc(F)c(F)c1)C(=O)NC1CCCCC1 [9-J22, 2-cyano-N-cyclohexyl-3-(3,4-difluorophenyl)prop-2-enamide]",101.224
6,"C=CC(=O)N(CC)CC(=O)N1CCc2c(cccc2NC(C)=O)C1 [3-K16, N-[2-(5-acetamido-1,2,3,4-tetrahydroisoquinolin-2-yl)-2-oxoethyl]-N-ethylprop-2-enamide]",90.5017
7,"COc1ccc(C=C(C#N)C(N)=O)c(Cl)c1OC [9-H14, 3-(2-chloro-3,4-dimethoxyphenyl)-2-cyanoprop-2-enamide]",95.1054
8,"CC(C)c1ccc(C(NC(=O)CCl)C(C)C)cc1 (stereo not shown) [4-O14, 2-chloro-N-{2-methyl-1-[4-(propan-2-yl)phenyl]propyl}acetamide]",93.3362
9,"CC(CO)(Cc1ccc(F)cc1)NC(=O)CCl (stereo not shown) [7-F06, 2-chloro-N-{2-[(4-fluorophenyl)methyl]-1-hydroxypropan-2-yl}acetamide]",78.5065
10,"N#CC(=Cc1ccco1)C(=O)NCc1nc(-c2ccncc2)cs1 [9-B20, 2-cyano-3-(furan-2-yl)-N-{[4-(pyridin-4-yl)-1,3-thiazol-2-yl]methyl}prop-2-enamide]",84.9082
11,"C=CC(=O)N(C)Cc1cc(-c2ccccc2)[nH]n1 [1-B05, N-methyl-N-[(5-phenyl-1H-pyrazol-3-yl)methyl]prop-2-enamide]",93.2735
12,"C=CC(=O)Nc1cc(C)c(CC)cc1OC [3-O06, N-(4-ethyl-2-methoxy-5-methylphenyl)prop-2-enamide]",109.028
13,"O=C(CCl)N1CC(NC(=O)C(F)(F)F)CCC1C(F)(F)F (stereo not shown) [5-O18, N-[1-(2-chloroacetyl)-6-(trifluoromethyl)piperidin-3-yl]-2,2,2-trifluoroacetamide]",100.032
14,"COc1cc(CNC(=O)C(C#N)=Cc2ccco2)c2ccccc2n1 [9-I05, 2-cyano-3-(furan-2-yl)-N-[(2-methoxyquinolin-4-yl)methyl]prop-2-enamide]",91.7063
15,"Cn1cc(C(=O)CCl)cc1C(N)=O [10-J06, 4-(2-chloroacetyl)-1-methyl-1H-pyrrole-2-carboxamide]",97.5648
16,"C=CC(=O)N1CCC(C(=O)N[C@@H](C)C(=O)NC)(c2ccccc2)CC1 [2-B16, (2S)-N-methyl-2-{[4-phenyl-1-(prop-2-enoyl)piperidin-4-yl]formamido}propanamide]",88.4975
17,"CC(Cl)C(=O)NC(C)(C(N)=O)c1cccc(Cl)c1 (stereo not shown) [5-J17, 2-(3-chlorophenyl)-2-(2-chloropropanamido)propanamide]",94.9879
18,"C=CC(=O)NCC1CCN(C2CC2)CC1 [1-A07, N-[(1-cyclopropylpiperidin-4-yl)methyl]prop-2-enamide]",88.3408
19,"C=CC(=O)NC1CCN(S(N)(=O)=O)CC1 [1-K18, N-(1-sulfamoylpiperidin-4-yl)prop-2-enamide]",87.4439
20,"O=C(CCl)Nc1ccc(S(=O)(=O)Nc2nccs2)cc1 [4-B14, 2-chloro-N-{4-[(1,3-thiazol-2-yl)sulfamoyl]phenyl}acetamide]",105.758
21,"CC(C)c1ccc(CCNC(=O)CCl)cc1 [6-I16, 2-chloro-N-{2-[4-(propan-2-yl)phenyl]ethyl}acetamide]",91.9139
22,"CC(Cl)C(=O)N1CC(n2cc(C(N)=O)nn2)C1 (stereo not shown) [5-F21, 1-[1-(2-chloropropanoyl)azetidin-3-yl]-1H-1,2,3-triazole-4-carboxamide]",101.376
23,"CC(Cl)C(=O)N(Cc1nnc(-c2ccccc2Cl)o1)C1CC1 (stereo not shown) [5-B17, 2-chloro-N-{[5-(2-chlorophenyl)-1,3,4-oxadiazol-2-yl]methyl}-N-cyclopropylpropanamide]",85.0688
24,"O=C(CCl)Nc1ccc(Cl)c(S(=O)(=O)N2CCOCC2)c1 [6-K13, 2-chloro-N-[4-chloro-3-(morpholine-4-sulfonyl)phenyl]acetamide]",92.824
25,"C=CC(=O)N1CC2(CCCC2)CC1CO (stereo not shown) [2-I19, 1-[3-(hydroxymethyl)-2-azaspiro[4.4]nonan-2-yl]prop-2-en-1-one]",93.1294
26,"O=C(CCl)N1CCCC1c1ccccc1 (stereo not shown) [6-M19, 2-chloro-1-(2-phenylpyrrolidin-1-yl)ethan-1-one]",91.6106
27,"N#CC(=Cc1cn(-c2ccccc2)nc1-c1ccccc1Cl)C(N)=O [8-N18, 3-[3-(2-chlorophenyl)-1-phenyl-1H-pyrazol-4-yl]-2-cyanoprop-2-enamide]",57.036
28,"O=C(CCl)N1N=C(c2ccccc2)CC1c1ccc2nccnc2c1 (stereo not shown) [4-A22, 2-chloro-1-[3-phenyl-5-(quinoxalin-6-yl)-4,5-dihydro-1H-pyrazol-1-yl]ethan-1-one]",111.451
